The list shows a part of the results. The list includes weakly bound sequences.

The experiment addresses MaxL homodimer (UniProt P61244). Briefly: universal protein-binding microarray (PBM). As to conditions: PBS-based mixture, 10 nM His-tagged protein dimer, 2% milk, 200 ng/uL BSA, 50 ng/uL salmon testes DNA, 0.02% TX-100; detection with Alexa 488 anti-His …; high values mean tight binding; most listed sequences are background and not binding sites; double strand, one strand shown.
Sequence of UniProt P61244 (P61244 whole entry): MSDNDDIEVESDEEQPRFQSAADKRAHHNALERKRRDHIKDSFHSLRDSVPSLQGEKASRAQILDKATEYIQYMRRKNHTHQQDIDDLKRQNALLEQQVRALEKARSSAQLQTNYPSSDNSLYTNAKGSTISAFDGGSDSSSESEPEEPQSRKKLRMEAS
As to GAGTTTCA, the binding signal (normalized occupancy) worked out at 0.0703. The result for CGCATCCA reads 0.077. The result for GCATTAGC reads 0.0727; that for AATGTAAG, 0.0879. With CACGGAGG the figure was 0.0714; with ATCATAAC, 0.0857; with CATCCTTA, 0.0814.

Turning to AGTCAACA, the binding signal (normalized occupancy) is 0.0779.

Turning to TCCACGAA, the binding signal (normalized occupancy) amounted to 0.0784. The result for TAAAGTTA reads 0.0709; that for CCAATTCA, 0.0744.

With TAAAATTA, the binding signal (normalized occupancy) was 0.069.

Consider CGCGCCAA, for which the binding signal (normalized occupancy) amounted to 0.0707. With CATGACCC the figure was 0.0876; with TAGTTTCA, 0.074. With ACGGGTCA the figure was 0.0744; with ACTCTGGA, 0.0708.

With AATTGGTG, the binding signal (normalized occupancy) was 0.075. With CATCAGCA the figure was 0.0809; with CGCGCTGC, 0.0805. As for CATTGAAA, the binding signal (normalized occupancy) worked out at 0.0742. With AACGAATA the figure was 0.0759; with AAATAAAT, 0.0721. With GCTCTCAA the figure was 0.0735; with GGAGTCGA, 0.0715. The result for ACATGGAG reads 0.0868; that for CACGGACC, 0.0751. In the case of AGGTGAGG, the binding signal (normalized occupancy) is 0.0742. The result for GGCATTAA reads 0.0712; that for GCAAGTGC, 0.0726. With ATCCTGGC the figure was 0.0676; with CTTTAATA, 0.0772.

Consider GGCGAACC, for which the binding signal (normalized occupancy) worked out at 0.0697. The result for GAAGGATC reads 0.0758; that for GGCCCTCA, 0.0741; that for AAGGTGGC, 0.0758. The result for ACTATTAA reads 0.0742; that for CTGGATCC, 0.0727; that for ATCCGGTC, 0.072.

CCTTATCC: the binding signal (normalized occupancy) was found to be 0.0692. With AAGTTTTC the figure was 0.0668; with ATAAGGAC, 0.075. With ACTTAAAA the figure was 0.0709.

Consider AGCTGAAA, for which the binding signal (normalized occupancy) is 0.0723. The result for ATCTATTG reads 0.078; that for GAGTACTA, 0.074; that for AATACAAA, 0.0785.

AACCTCTG: the binding signal (normalized occupancy) was found to be 0.0733. The result for GCCGGCCA reads 0.0695. As to AGTGGATG, the binding signal (normalized occupancy) is 0.0806. Regarding AGGGCATC, the binding signal (normalized occupancy) is 0.0776. As for CGCGCTAC, the binding signal (normalized occupancy) was 0.0819. Take AGTGGACA: the binding signal (normalized occupancy) amounted to 0.0832. Take TAAGAAGA: the binding signal (normalized occupancy) is 0.073. Take CGAGTTAG: the binding signal (normalized occupancy) turned out to be 0.0768. As to TCAAATGA, the binding signal (normalized occupancy) was found to be 0.0748. The result for AGACCTTG reads 0.0706; that for ATGATGAC, 0.0815. For the sequence AGCCCTGA, the binding signal (normalized occupancy) came out at 0.0699.

In the case of ACCCCATA, the binding signal (normalized occupancy) stood at 0.0838.

Consider CGCGTCCC, for which the binding signal (normalized occupancy) worked out at 0.0699. The result for GATAGCCA reads 0.0696; that for CGCTATTA, 0.075; that for CCGCATAC, 0.0794. On to ACTAACGG, for which the binding signal (normalized occupancy) was 0.072. Take TCTAGGCA: the binding signal (normalized occupancy) turned out to be 0.0711.

AAGGCAGA: the binding signal (normalized occupancy) came to 0.0759. The result for ACCTGAGG reads 0.0673. The result for CAGCGCCA reads 0.0711; that for GCAATTGC, 0.0705; that for ACGTCCAG, 0.0714. The result for AACGGGTA reads 0.0795. As to CCACTTCG, the binding signal (normalized occupancy) turned out to be 0.0732.

Consider CTGTGGCA, for which the binding signal (normalized occupancy) was 0.0739. The result for CGTACAAA reads 0.0748; that for AGAATGCG, 0.0783. The result for CGTCATCA reads 0.0822; that for AGCAATCC, 0.0708; that for AGGTCTAC, 0.0715.

On to AAGATTTC, for which the binding signal (normalized occupancy) was found to be 0.0717.

Turning to CACACCCG, the binding signal (normalized occupancy) amounted to 0.0841. With CAGTTAAG the figure was 0.0719; with GCCGGCGA, 0.0629. The result for GGGTGGAC reads 0.0796; that for ACAGGGAT, 0.0814. With GGACGCGA the figure was 0.0754; with ACTGGTTA, 0.0754. Take AATCCCGG: the binding signal (normalized occupancy) was 0.0748. The result for CATTAAAG reads 0.0825; that for AGGGCAAG, 0.0725; that for AACATAGT, 0.0749. With AATTAGGG the figure was 0.0765. With GGGCTATA the figure was 0.0788; with CAAGGAGA, 0.0729. Consider CTACGCTC, for which the binding signal (normalized occupancy) worked out at 0.069.

As to ATTAGACG, the binding signal (normalized occupancy) was found to be 0.0762. The result for ACCGTCGC reads 0.0681; that for GTCTAGAC, 0.0727. For AGCCGAGA, the binding signal (normalized occupancy) stood at 0.0688.

Regarding GATGCCAC, the binding signal (normalized occupancy) stood at 0.0739.

AGCCACTG: the binding signal (normalized occupancy) worked out at 0.0678. The result for CCGATAGC reads 0.0729; that for CGTCTACC, 0.0714. With CACTCGAA the figure was 0.0772; with TACCGGTA, 0.0753. With CGGACAAC the figure was 0.0729; with GAGGTTGA, 0.073; with ACACGGCG, 0.0799. CACTACAA: the binding signal (normalized occupancy) turned out to be 0.0767. The result for CCCCAACA reads 0.0773.

The values are drawn from article PMC4242493.
